From ChEMBL document CHEMBL4888484, “Replenishing the malaria drug discovery pipeline: Screening and hit evaluation of the MMV Hit Generation Library 1 (HGL1) against asexual blood stage Plasmodium falciparum ,using a nano luciferase reporter read-out” (2022)
In all, about 150,000 compounds went through this assay and about 540 (0.36%) showed an effect of 50% or more. Some of the results follow.

What follows are molecules tested on Plasmodium falciparum (assay: Primary screen in NF54 nanoGlo assay, in single point, at 2uM, 72h; a lower Z score goes with more inhibition). Settings: timepoint 72 hour.
Assay type: functional, Erythrocyte

Row | Structure (SMILES) | % Inhibition | Z score
1 | Cn1cc(-c2ccc(C3(C#N)CCCC3)cc2)cn1 | -7% | 0.96
2 | COc1ccc2cc3n(c2c1)C[C@](C(=O)NC1CCCCCC1)(c1ccccc1)N(Cc1ccccc1F)C3=O | 38% | -5.47
3 | COc1ccccc1N(CCn1cc(C#N)cn1)S(=O)(=O)c1ccc(F)cc1 | -6% | 0.71
4 | CCN(CC)C[C@H](O)COc1cc(CN2CCC3(CCCC3)C2)ccc1OC | 4% | -0.57
5 | COc1ccccc1C(C)(C)Cn1nnnc1N1CCC(CO)CC1 | -22% | 2.46
6 | CCOc1ccc(CNC(=O)c2nccn2Cc2ccc(Cl)cc2)cc1 | -12% | 2.2
7 | C[C@H](NCCn1cncn1)c1cccc(C2CC2)c1 | -8% | 1.3
8 | COc1cn(CC(=O)NCCn2ccc3cc(Br)ccc32)c(C)cc1=O | -1% | 0.18
9 | Cc1cnn(C2CCCC2)c1NC(=O)NC[C@@H](CO)Cc1ccco1 | -9% | 1.78
10 | CC1CCN(C(=O)[C@@H]2CCCN2C(=O)c2ccccc2)CC1 | -1% | 0.19
11 | O=C(Nc1ccccc1C(F)(F)F)N1CC(N2C(=O)C3CC=CCC3C2=O)C1 (stereo unspecified) | -17% | 1.98
12 | CC(C)CCC(=O)Nc1cc(Br)c[nH]c1=O | -16% | 1.52
13 | C[C@@H](CC(=O)N(C)c1ccccc1)NCc1cccnc1 | -5% | 0.46
14 | CCN(C[C@H]1CCOC1)C(=O)Nc1cccnc1-n1cccn1 | -1% | 0.21
15 | O=C(c1cc(=O)c(OCc2ccc(F)cc2)c[nH]1)N1CCN(c2ccccc2F)CC1 | 5% | -0.75
16 | COCc1c(C(=O)NCCc2ccccc2F)cnn1-c1nccc(-c2cccs2)n1 | -2% | 0.25
17 | CCS(=O)(=O)C1CN(C(=O)c2ccc3ncsc3c2)C1 | -4% | 0.83
18 | Cc1cnc(CN2C[C@]3(CCCN(C(=O)c4cccnc4C)C3)CCC2=O)cn1 | -10% | 1.32
19 | Cc1noc([C@@H]2CCCN2CCC(=O)N2CCN(C)CC2)n1 | -13% | 2.18
20 | CN(CCc1noc(C2CC2)n1)C(=O)[C@H]1CCOC1 | 0% | -0.05
21 | CC(C)CCNC(=O)C1Cc2ccccc2N2CCN(Cc3ccccc3)CC12 (stereo unspecified) | -12% | 1.11
22 | O=C1C[C@]2(C(=O)N(Cc3ccccc3Cl)c3ccccc32)c2cn[nH]c2N1 | 3% | -0.34
23 | Cc1cc2ncc(NC(=O)[C@@H]3COc4ccccc4O3)cn2n1 | -4% | 0.49
24 | COC(=O)C1CCCC1NC(=O)CC1CCC(C(F)(F)F)CC1 (stereo unspecified) | -7% | 0.98
25 | CN(Cc1coc(-c2ccc(S(C)(=O)=O)cc2)n1)C1CCCCC1S(C)(=O)=O (stereo unspecified) | 9% | -0.97
26 | O=C(Cc1csc(-c2cccnc2)n1)N1CC(S(=O)(=O)N2CCOCC2)C1 | -7% | 0.85
27 | COc1ccc(CNC[C@H]2CCCO2)cc1OCc1ccco1 | 4% | -0.59

Row | Structure (SMILES) | % Inhibition | Z score
28 | Cc1ccc(CC[C@H]2Nc3ccccc3C(c3ccccc3)(c3ccccc3)O2)o1 | 81% | -13.4
29 | Cc1cccc(CN[C@H]2CC(=O)N(CCN3CCOCC3)C2)c1C | -5% | 0.62
30 | Nc1cc(Cl)ccc1OC[C@H]1CCCCO1 | -6% | 1.15
31 | O=C(N[C@H]1COCC[C@@H]1O)c1ccc2nnnn2c1 | -21% | 1.83
32 | COc1ccc(CNC(=O)c2cc(-c3ccccc3)ns2)cc1 | -16% | 2
33 | C=CCCS(=O)(=O)NCc1ccncc1 | 32% | -4.68
34 | COc1ccc(CN(C)C(=O)NC(C)C)cc1O | 12% | -1.88
35 | COCCn1ccc2cc(C(=O)N[C@H]3CCCc4c3[nH]c3ccc(OC)cc43)ccc21 | -13% | 1.62
36 | CCc1nnc(CNS(=O)(=O)c2ccc(C(=O)N3CCCC3)cc2)s1 | -11% | 1.9
37 | CN(C)S(=O)(=O)N1CC[C@]23C(=O)N(CC(=O)NCCCOc4cccc(c4)[C@H]12)c1ccccc13 | -11% | 2.02
38 | CN1CCC(N2C[C@@H]3C[C@H]2C(=O)NC[C@H]2O[C@H](CCOc4cc(-c5ccccc5)ccc4C(=O)N3)CC[C@@H]2O)CC1 | 9% | -1.04
39 | CCc1nc(C)sc1CNC(=O)C(=O)c1ccco1 | -17% | 1.74
40 | Cc1cccc(OC[C@H]2CN(C(=O)Nc3ccccc3)CCO2)c1 | -6% | 0.62
41 | COCCN(C)C[C@@H]1C[C@H](CO)CN(C(=O)c2ccc(C)c(Cl)c2)C1 | -9% | 1.71
42 | CN(CCc1ccccn1)c1nncc(-c2ccccc2F)n1 | 3% | -0.33
43 | Cc1ccc(O[C@H]2CCOC[C@H]2NC(=O)CCc2scnc2C)cn1 | -10% | 1.12
44 | CS(=O)(=O)NCCn1nc(C2CC2)cc1C1CC1 | -23% | 2.96
45 | CN(CCc1ccccn1)c1ccc2c(c1)CNCC(=O)N1CC[C@@H](CC(=O)NCC3CC3)[C@@H](/C=C/CO2)C1 | -10% | 1.25
46 | OC[C@H]1CCCN(Cc2c(Cl)cccc2N2CCCC2)C1 | -14% | 1.38
47 | CC(=O)N1CCc2[nH]c3ccc(C(=O)N4CCN(C(C)C)CC4)cc3c2C1 | 4% | -0.62
48 | COc1cc(NS(=O)(=O)c2cc(CN3C(=O)C4CCCCC4C3=O)ccc2C)cc(OC)c1 (stereo unspecified) | 1% | -0.18
49 | COc1ccc2c(c1)[C@H](c1nc(-c3ccncc3)no1)CC(=O)N2 | -14% | 1.58
50 | CN(Cc1ccoc1)C(=O)c1ccncc1 | -6% | 1.05
51 | c1ncc(CNc2ccc(Cc3nnc4n3CCC4)cc2)s1 | -2% | 0.32
52 | O=C1[C@@H](Oc2nnc(-c3ccccc3)o2)CCN1CC(F)(F)F | -24% | 3.23
53 | COc1ccccc1C(=O)N1CCN(c2nc3c(s2)c(C)nn3C)CC1 | -1% | 0.12
